Results: patent US20250002557A1 (SUZHOU LIGHT FERRY BIOMED, published 2025)

T1: VEGF-D (UniProt O43915 89-205, limits assumed)
T1 construct: Bought reagent
T1 sequence (looked up): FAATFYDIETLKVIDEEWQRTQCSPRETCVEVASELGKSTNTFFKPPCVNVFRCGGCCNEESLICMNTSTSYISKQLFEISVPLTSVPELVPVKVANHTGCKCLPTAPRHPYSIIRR

T2: VEGF-C (UniProt P49767 112-227, limits assumed)
T2 construct: Bought reagent
T2 sequence (looked up): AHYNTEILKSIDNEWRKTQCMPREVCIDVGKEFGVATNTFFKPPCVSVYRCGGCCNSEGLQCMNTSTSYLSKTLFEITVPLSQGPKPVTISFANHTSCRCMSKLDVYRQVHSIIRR

T3: PIGF (UniProt P49763-2 19-149, limits assumed)
T3 construct: Bought reagent; also called PLGF; placental growth factor
T3 sequence (looked up): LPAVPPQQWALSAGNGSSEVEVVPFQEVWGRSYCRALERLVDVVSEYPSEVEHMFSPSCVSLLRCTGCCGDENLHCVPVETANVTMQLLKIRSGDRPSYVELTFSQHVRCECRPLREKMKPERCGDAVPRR

T4: VEGF-A165 (UniProt P15692-4 27-191)
T4 construct: Bought reagent
T4 sequence (looked up): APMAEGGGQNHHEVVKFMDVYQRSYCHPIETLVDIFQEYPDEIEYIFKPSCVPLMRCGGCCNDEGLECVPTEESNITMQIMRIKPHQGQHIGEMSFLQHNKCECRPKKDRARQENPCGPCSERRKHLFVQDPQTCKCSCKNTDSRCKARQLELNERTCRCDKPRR

T5: VEGF-B (UniProt P49765-2 22-188, limits assumed)
T5 construct: Bought reagent
T5 sequence (looked up): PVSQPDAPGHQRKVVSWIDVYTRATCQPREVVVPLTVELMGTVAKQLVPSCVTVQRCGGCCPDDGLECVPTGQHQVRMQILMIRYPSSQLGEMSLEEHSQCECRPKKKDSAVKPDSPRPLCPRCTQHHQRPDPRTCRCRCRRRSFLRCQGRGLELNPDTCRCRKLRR

T6: VEGF-A 121 (UniProt P15692-9 27-147)
T6 construct: Bought reagent
T6 sequence (looked up): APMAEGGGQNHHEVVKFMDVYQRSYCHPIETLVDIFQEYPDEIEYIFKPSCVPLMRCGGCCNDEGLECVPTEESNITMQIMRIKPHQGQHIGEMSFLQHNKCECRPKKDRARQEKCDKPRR

B1: LFV-Q Recombinant receptor molecule (Fc fusion)
chain: YVQDYRSPFIASVSDQHGVVYITENKNKTVVIPCLGSISNLNVSLCARYPEKRFVPDGNRISWDSKKGFTIPSYMISYAGMVFCEAKINDESYQSIMYIVVVVGYRIYDVVLSPSHGIELSVGEKLVLQCTARTELNVGIDFNWEYPSSKHQHKKLVNRDLKTQSGSEMKKFLSTLTIDGVTRSDQGLYTCAASSGLMTKKNSTFVRVHEKGGGGSGRPFVEMYSEIPEIIHMTEGRELVIPCRVTSPNITVTLKKFPLDTLIPDGKRIIWDSRKGFIISNATYKEIGLLTCEATVNGHLYKTNYLTHRQTNTIIGPG[here human IgG1 Fc without letters]
B2: LFV-M Recombinant receptor molecule (Fc fusion)
chain: GRPFVEMYSEIPEIIHMTEGRELVIPCRVTSPNITVTLKKFPLDTLIPDGKRIIWDSRKGFIISNATYKEIGLLTCEATVNGHLYKTNYLTHRQTNTIIGGGGSGGSPFIASVSDQHGVVYITENKNKTVVIPCLGSISNLNVSLCARYPEKRFVPDGNRISWDSKKGFTIPSYMISYAGMVFCEAKINDESYQSIMYIVVVVGYRIYDVVLSPSHGIELSVGEKLVLNCTARTELNVGIDFNWEYPSSKHQHKKLVNRDLKTQSGSEMKKFLSTLTIDGVTRSDQGLYTCAASSGLMTKKNSTFVRVHEKGPG[here human IgG1 Fc without letters]
notes: expressed in CHO cells
B3: LFV-R Recombinant receptor molecule (Fc fusion)
chain: B2 chain with N229Q
B4: LFV-A (Fc fusion)
Fc fusion chain: YVQDYRSPFIASVSDQHGVVYITENKNKTVVIPCLGSISNLNVSLCARYPEKRFVPDGNRISWDSKKGFTIPSYMISYAGMVFCEAKINDESYQSIMYIVVVGPG[here human IgG1 Fc without letters]
notes: also called LFV-A Recombinant receptor molecule

Key:
VEGF-D [1] = target: T1, VEGF-D; assay: ELISA binding to VEGF-D, OD450
PDGF-AA = target: T7, PDGF-AA (UniProt P04085 87-211); assay: SPR, PDGF coupled to chip, trap in flow
T7 construct: Bought reagent
Description: (§1) Nevertheless, it was found in the preliminary detection experiments that PDGF family molecules (purchased from R&D Systems Inc.) were prone to produce non-specific binding in the chip, resulting in a pseudo-elevation in measured values, such that the detection could not be completed. Therefore, PDGF-AA, PDGF-AB, PDGF-BB and PDGF-CC molecules were separately loaded through a coupling reaction on a CM5 chip, followed by influx of the recombinant receptor molecules, thus effectively eliminating the impact of non-specific binding on affinity determination.

PDGF-AB = target: T8, PDGF-AB (UniProt P04085 87-211; P01127 82-190); assay: SPR, PDGF coupled to chip, trap in flow
T8 construct: Bought reagent
Description: as §1

PDGF-BB = target: T9, PDGF-BB (UniProt P01127 82-190); assay: SPR, PDGF coupled to chip, trap in flow
T9 construct: Bought reagent
Description: as §1

PDGF-CC = target: T10, PDGF-CC (UniProt Q9NRA1 235-345); assay: SPR, PDGF coupled to chip, trap in flow
T10 construct: Bought reagent
Description: as §1

VEGF-C [2] = target: T2, VEGF-C; assay: ELISA binding to VEGF-C, absorbance 450 nm
PIGF [3] = target: T3, PIGF; assay: ELISA, PlGF coated, anti-human Fc-HRP, OD450
PIGF [4] = target: T3, PIGF; assay: ELISA, PlGF coated, anti-human Fc-HRP, OD450; remark: listed apart in the source
VEGF-A165 [5] = target: T4, VEGF-A165; assay: ELISA binding to VEGF-A165, absorbance 450 nm
VEGF-B [6] = target: T5, VEGF-B; assay: ELISA, VEGF-B coated, anti-human Fc-HRP, OD450
VEGF-B [7] = target: T5, VEGF-B; assay: ELISA, VEGF-B coated, anti-human Fc-HRP, OD450; remark: listed apart in the source
VEGF-C [8] = target: T2, VEGF-C; assay: blocking ELISA: His-VEGF-C premixed with sample, binding to coated VEGFR2-Fc read with anti-His-HRP
VEGF-D [9] = target: T1, VEGF-D; assay: blocking ELISA: His-VEGF-D premixed with sample, binding to coated VEGFR2-Fc read with anti-His-HRP
VEGF-C [10] = target: T2, VEGF-C; assay: blocking ELISA: His-VEGF-C premixed with sample, binding to coated VEGFR2-Fc read with anti-His-HRP; remark: listed apart in the source
Procedure: (§2) During the blocking period, each recombinant receptor molecule was serially diluted from high to low concentrations, mixed evenly with 100 ng/well of VEGF-C or VEGF-D (both labeled with His-tag), allowing for incubation at room temperature for 30 minutes. […] The plates were washed with PBST, then anti-polyhistidine secondary antibody conjugated with horseradish peroxidase was added to allow for incubation and binding at room temperature for 1 hour. Then the plates were washed with PBST, TMB was added for color development, terminated with 5% hydrochloric acid solution, and finally, the OD values at 450 nm were read using a microplate reader.

VEGF-D [11] = target: T1, VEGF-D; assay: blocking ELISA: His-VEGF-D premixed with sample, binding to coated VEGFR2-Fc read with anti-His-HRP; remark: listed apart in the source
Procedure: as §2

VEGF-A165 [12] = target: T4, VEGF-A165; assay: blocking ELISA: His-VEGF-A165 premixed with sample, binding to coated VEGFR2-Fc read with anti-His-HRP
VEGF-A165 [13] = target: T4, VEGF-A165; assay: as above; remark: listed apart in the source
VEGF-A165 [14] = target: T4, VEGF-A165; assay: blocking ELISA: His-VEGF-A165 premixed with sample, binding to coated VEGFR1-Fc read with anti-His-HRP
PIGF [15] = target: T3, PIGF; assay: ELISA, coated PIGF (Example 16)
VEGF-B [16] = target: T5, VEGF-B; assay: ELISA, coated VEGF-B (Example 16)
VEGF-D [17] = target: T1, VEGF-D; assay: blocking ELISA, VEGF D to VEGFR2 (Example 16)
VEGF-C [18] = target: T2, VEGF-C; assay: blocking ELISA, VEGF-C to VEGFR2 (Example 13)
VEGF-D [19] = target: T1, VEGF-D; assay: blocking ELISA, VEGF-D to VEGFR2 (Example 13)
VEGF-D [20] = target: T1, VEGF-D; assay: blocking ELISA, VEGF-D to VEGFR3 (Example 13)
VEGF-A165 [21] = target: T4, VEGF-A165; assay: blocking ELISA, VEGF A165 to VEGFR1 (Example 16)
VEGF-A165 [22] = target: T4, VEGF-A165; assay: blocking ELISA, VEGF A165 to VEGFR2 (Example 16)
VEGF-A165 [23] = target: T4, VEGF-A165; assay: blocking ELISA, VEGF-A165 to VEGFR1 (Example 13)
VEGF-A165 [24] = target: T4, VEGF-A165; assay: blocking ELISA, VEGF-A165 to VEGFR2 (Example 13)
PIGF [25] = target: T3, PIGF; assay: ELISA, PlGF coated, anti-human Fc-HRP, OD450; remark: listed apart in the source
VEGF-B [26] = target: T5, VEGF-B; assay: ELISA, VEGF-B coated, anti-human Fc-HRP, OD450; remark: listed apart in the source
VEGF-A165 [27] = target: T4, VEGF-A165; assay: ELISA, VEGF-A165 coated, anti-human Fc-HRP, OD450
VEGF-A 121 = target: T6, VEGF-A 121; assay: ELISA, VEGF-A 121 coated, anti-human Fc-HRP, OD450

PDGF-CC, sequence (Q9NRA1 235-345): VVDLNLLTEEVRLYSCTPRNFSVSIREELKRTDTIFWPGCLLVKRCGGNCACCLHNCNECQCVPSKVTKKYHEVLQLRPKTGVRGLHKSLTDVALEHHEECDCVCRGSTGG
PDGF-BB, sequence (P01127 82-190): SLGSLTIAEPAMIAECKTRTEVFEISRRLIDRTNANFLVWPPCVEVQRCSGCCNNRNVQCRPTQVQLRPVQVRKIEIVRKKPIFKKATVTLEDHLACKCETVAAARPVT
PDGF-AB, sequence (P01127 82-190, chain 2 of 2, other chains not shown): as the sequence (P01127 82-190) above

Binder | EC50 (VEGF-D [1]) [nM] | Kd (PDGF-AA) [nM] | koff (PDGF-AA) [s⁻¹] | kon (PDGF-AA) [M⁻¹ s⁻¹] | Kd (PDGF-AB) [nM] | koff (PDGF-AB) [s⁻¹] | kon (PDGF-AB) [M⁻¹ s⁻¹] | Kd (PDGF-BB) [nM] | koff (PDGF-BB) [s⁻¹] | kon (PDGF-BB) [M⁻¹ s⁻¹] | Kd (PDGF-CC) [nM] | kon (PDGF-CC) [M⁻¹ s⁻¹] | EC50 (VEGF-C [2]) [nM] | EC50 (PIGF [4]) [nM] | EC50 (VEGF-A165 [5]) [nM] | EC50 (VEGF-B [7]) [nM] | EC50 (VEGF-C [10]) [nM] | EC50 (PIGF [15]) [µg/mL] | EC50 (VEGF-B [16]) [µg/mL] | EC50 (VEGF-D [17]) [nM] | also measured
B1 | 17.1 | 10.4 | 0.000442 | 42600 | 122 | 0.00362 | 29600 | 68.5 | 0.0017 | 24800 | 99.3 | 21600 | 0.3 | 0.544 | 0.089 | 1.67 | 14.6 | – | – | – | EC50 (PIGF [3]): 0.21 nM; EC50 (VEGF-B [6]): 1.6 nM; EC50 (VEGF-C [8]): 7.2 nM; EC50 (VEGF-D [9]): 1.06 nM; EC50 (VEGF-D [11]): 5.02 nM; EC50 (VEGF-A165 [12]): 1.65 nM; EC50 (VEGF-A165 [13]): 4.32 nM; EC50 (VEGF-A165 [14]): 8.11 nM
B2 | – | – | – | – | – | – | – | – | – | – | – | – | – | 0.365 | – | 1.51 | 12.8 | 0.0439 | 0.182 | 5.62 | EC50 (VEGF-C [18]): 27.6 nM; EC50 (VEGF-D [19]): 2.17 nM; EC50 (VEGF-D [20]): 2.74 nM; EC50 (VEGF-A165 [21]): 7.8 nM; EC50 (VEGF-A165 [22]): 2.65 nM; EC50 (VEGF-A165 [23]): 3.14 nM; EC50 (VEGF-A165 [24]): 1.6 nM; EC50 (PIGF [25]): 0.47 nM; EC50 (VEGF-B [26]): 1.35 nM
B3 | 11.9 | 506 | 0.00111 | 2190 | 91.7 | 0.00144 | 15700 | 4.34 | 0.000222 | 51200 | 90.2 | 9380 | 0.273 | 0.267 | 0.065 | 1.05 | 13.4 | 0.032 | 0.126 | 4.93 | koff (PDGF-CC): 0.000847 s⁻¹; EC50 (VEGF-A165 [21]): 6.97 nM; EC50 (VEGF-A165 [22]): 1.9 nM
B4 | – | – | – | – | – | – | – | – | – | – | – | – | – | – | – | – | – | – | – | – | binding result (VEGF-A165 [27]): no binding (tested: log10 3 (1000 ng/ml)); binding result (VEGF-A 121): no binding (tested: log10 3 (1000 ng/ml))

Residue numbers refer to the chain shown, from its start.
